This continues a long series; more values of the same kind are listed elsewhere.
Assays:
[1] = system: Rat; assay: concentration in brain after dosing; conditions: 1 h; dosed: 2-Methyltetrahydrofuran; 10 mg/kg; oral; Male; F344
[2] = system: Rat; assay: concentration in brain after dosing; conditions: 10 min; dosed: 2-Methyltetrahydrofuran; 100 mg/kg; oral; Female; Harlan Sprague Dawley
[3] = system: Rat; assay: concentration in brain after dosing; conditions: 10 min; dosed: 2-Methyltetrahydrofuran; 30 mg/kg; oral; Female; F344
[4] = system: Rat; assay: concentration in brain after dosing; conditions: 0.75 h; dosed: 2-Methyltetrahydrofuran; 100 mg/kg; oral; Male; Harlan Sprague Dawley
[5] = system: Rat; assay: concentration in plasma after dosing; conditions: 2 h; dosed: 2-Methyltetrahydrofuran; 10 mg/kg; iv; Male; F344
[6] = system: Rat; assay: concentration in plasma after dosing; conditions: 3 h; dosed: 2-Methyltetrahydrofuran; 30 mg/kg; oral; Male; F344
[7] = system: Rat; assay: concentration in plasma after dosing; conditions: 20 min; dosed: 2-Methyltetrahydrofuran; 400 mg/kg; oral; Female; Harlan Sprague Dawley
[8] = system: Rat; assay: concentration in plasma after dosing; conditions: 2 h; dosed: 2-Methyltetrahydrofuran; 30 mg/kg; oral; Female; F344
[9] = system: Rat; assay: concentration in plasma after dosing; conditions: 8 h; dosed: 2-Methyltetrahydrofuran; 400 mg/kg; oral; Male; F344
[10] = system: Rat; assay: concentration in brain after dosing; conditions: 1.5 h; dosed: 2-Methyltetrahydrofuran; 10 mg/kg; oral; Female; F344
[11] = system: Rat; assay: concentration in brain after dosing; conditions: 8 min; dosed: 2-Methyltetrahydrofuran; 30 mg/kg; oral; Male; F344
[12] = system: Rat; assay: concentration in brain after dosing; conditions: 4 h; dosed: 2-Methyltetrahydrofuran; 400 mg/kg; oral; Female; Harlan Sprague Dawley
[13] = system: Rat; assay: concentration in plasma after dosing; conditions: 0.25 h; dosed: 2-Methyltetrahydrofuran; 10 mg/kg; oral; Female; F344
[14] = system: Rat; assay: concentration in plasma after dosing; conditions: 5 min; dosed: 2-Methyltetrahydrofuran; 10 mg/kg; iv; Male; F344
[15] = system: Rat; assay: concentration in plasma after dosing; conditions: 10 min; dosed: 2-Methyltetrahydrofuran; 400 mg/kg; oral; Male; F344
[16] = system: Rat; assay: concentration in plasma after dosing; conditions: 20 min; dosed: 2-Methyltetrahydrofuran; 100 mg/kg; oral; Male; Harlan Sprague Dawley
[17] = system: Rat; assay: concentration in plasma after dosing; conditions: 0.5 h; dosed: 2-Methyltetrahydrofuran; 10 mg/kg; iv; Male; F344
[18] = system: Rat; assay: concentration in plasma after dosing; conditions: 5 min; dosed: Bromochloroacetic acid; 10 mg/kg; iv; Male; F344
[19] = system: Rat; assay: concentration in plasma after dosing; conditions: 0.75 h; dosed: Bromochloroacetic acid; 100 mg/kg; oral; Female; F344
[20] = system: Rat; assay: concentration in plasma after dosing; conditions: 0.5 h; dosed: Fluorotelomer alcohol 8+2; 160 mg/kg; oral; Female; Harlan Sprague Dawley
[21] = system: Rat; assay: concentration in plasma after dosing; conditions: dosed: Fluorotelomer alcohol 8+2, 40 mg/kg, oral, Female, Harlan Sprague Dawley
[22] = system: Rat; assay: concentration in plasma after dosing; conditions: 3 h; dosed: Fluorotelomer alcohol 8+2; 80 mg/kg; oral; Female; Harlan Sprague Dawley
[23] = system: Rat; assay: concentration in plasma after dosing; conditions: dosed: Fluorotelomer alcohol 8+2, 48 mg/kg, oral, Male, Harlan Sprague Dawley
[24] = system: Rat; assay: concentration in plasma after dosing; conditions: dosed: Fluorotelomer alcohol 8+2, 48 mg/kg, oral, Male, Harlan Sprague Dawley; remark: listed apart in the source
[25] = system: Rat; assay: concentration in plasma after dosing; conditions: 12 h; dosed: Fluorotelomer alcohol 8+2; 24 mg/kg; oral; Male; Harlan Sprague Dawley
[26] = system: Rat; assay: concentration in plasma after dosing; conditions: 5 h; dosed: Formamide; 30 mg/kg; iv; Female; F344
[27] = system: Rat; assay: concentration in plasma after dosing; conditions: dosed: Formamide, 300 mg/kg, oral, Female, Harlan Sprague Dawley
[28] = system: Rat; assay: concentration in plasma after dosing; conditions: dosed: Formamide, 300 mg/kg, oral, Male, F344
[29] = system: Rat; assay: concentration in plasma after dosing; conditions: 5 h; dosed: Formamide; 30 mg/kg; iv; Female; F344; remark: listed apart in the source
[30] = system: Rat; assay: concentration in plasma after dosing; conditions: dosed: Formamide, 30 mg/kg, iv, Female, F344
[31] = system: Rat; assay: concentration in plasma after dosing; conditions: dosed: Formamide, 300 mg/kg, oral, Female, Harlan Sprague Dawley; remark: listed apart in the source
[32] = system: Rat; assay: concentration in plasma after dosing; conditions: dosed: Formamide, 36 mg/kg, oral, Male, Harlan Sprague Dawley
[33] = system: Rat; assay: concentration in plasma after dosing; conditions: dosed: Formamide, 600 mg/kg, oral, Female, Harlan Sprague Dawley
[34] = system: Rat; assay: concentration in plasma after dosing; conditions: 2 min; dosed: Pyridine; 50 mg/kg; oral; Female; F344
[35] = system: Rat; assay: concentration in plasma after dosing; conditions: dosed: Pyridine, 5 mg/kg, iv, Female, Harlan Sprague-Dawley
[36] = system: Rat; assay: concentration in plasma after dosing; conditions: 6 h; dosed: Pyridine; 50 mg/kg; oral; Female; F344
[37] = system: Rat; assay: concentration in plasma after dosing; conditions: 1 h; dosed: Pyridine; 200 mg/kg; oral; Female; Harlan Sprague Dawley
[38] = system: Rat; assay: concentration in plasma after dosing; conditions: 4 h; dosed: Pyridine; 10 mg/kg; oral; Male; Harlan Sprague Dawley

Question: `CC1CCCO1` (stereo not drawn) [2-Methyltetrahydrofuran] was tested. Which concentration in brain [1] did it give?
Answer: The concentration in brain was 0.708 µg/g.

Question: And the concentration in brain [2]?
Answer: Its concentration in brain is 43.3 µg/g.

Question: And the concentration in brain [3]?
Answer: Its concentration in brain is 8.96 µg/g.

Question: What about the concentration in brain [4] of the same molecule?
Answer: The concentration in brain was 53.6 µg/g.

Question: And the concentration in plasma [5]?
Answer: Its concentration in plasma is 210 ng/mL.

Question: What about the concentration in plasma [6] of the same molecule?
Answer: The concentration in plasma was 4330 ng/mL.

Question: And the concentration in plasma [7]?
Answer: Its concentration in plasma is 186000 ng/mL.

Question: What about the concentration in plasma [8] of the same molecule?
Answer: Its concentration in plasma is 4080 ng/mL.

Question: What about the concentration in plasma [9] of the same molecule?
Answer: Its concentration in plasma is 72400 ng/mL.

Question: What about the concentration in brain [10] of the same molecule?
Answer: Its concentration in brain is 0.156 µg/g.

Question: And the concentration in brain [11]?
Answer: Its concentration in brain is 9.97 µg/g.

Question: What about the concentration in brain [12] of the same molecule?
Answer: Its concentration in brain is 78.2 µg/g.

Question: What about the concentration in plasma [13] of the same molecule?
Answer: The concentration in plasma was 3260 ng/mL.

Question: What about the concentration in plasma [14] of the same molecule?
Answer: Its concentration in plasma is 9960 ng/mL.

Question: What about the concentration in plasma [15] of the same molecule?
Answer: Its concentration in plasma is 186000 ng/mL.

Question: And the concentration in plasma [16]?
Answer: The concentration in plasma was 46200 ng/mL.

Question: And the concentration in plasma [17]?
Answer: The concentration in plasma was 4340 ng/mL.

Question: How did the concentration in plasma [18] turn out when `O=C(O)C(Cl)Br` (stereo not drawn) [Bromochloroacetic acid] was run?
Answer: The concentration in plasma was 11300 ng/mL.

Question: What about the concentration in plasma [19] of the same molecule?
Answer: The concentration in plasma was 62200 ng/mL.

Question: Which results are given for `OCCC(F)(F)C(F)(F)C(F)(F)C(F)(F)C(F)(F)C(F)(F)C(F)(F)C(F)(F)F` [Fluorotelomer alcohol 8+2]?
Answer: concentration in plasma [20]: 506 ng/mL; concentration in plasma ([21]; 0.25 h): 158 ng/mL; concentration in plasma ([21]; 6 h): 112 ng/mL; concentration in plasma [22]: 878 ng/mL; concentration in plasma ([23]; 1 h): 639 ng/mL; concentration in plasma ([23]; 24 h): 4.45 ng/mL; concentration in plasma ([24]; 0.25 h): 128 ng/mL; concentration in plasma ([24]; 6 h): 150 ng/mL; concentration in plasma [25]: 11.8 ng/mL

Question: Which results are given for `NC=O` [Formamide]?
Answer: concentration in plasma [26]: 28700 ng/mL; concentration in plasma ([27]; 1.5 h): 270000 ng/mL; concentration in plasma ([27]; 30 h): 106000 ng/mL; concentration in plasma ([28]; 0.25 h): 137000 ng/mL; concentration in plasma ([28]; 5 h): 282000 ng/mL; concentration in plasma [29]: 31300 ng/mL; concentration in plasma ([30]; 5 min): 45100 ng/mL; concentration in plasma ([30]; 36 h): 3300 ng/mL; concentration in plasma ([31]; 1.5 h): 228000 ng/mL; concentration in plasma ([31]; 30 h): 166000 ng/mL; concentration in plasma ([32]; 1.5 h): 47400 ng/mL; concentration in plasma ([32]; 30 h): 12400 ng/mL; concentration in plasma ([33]; 1 h): 610000 ng/mL; concentration in plasma ([33]; 72 h): 28100 ng/mL

Question: `c1ccncc1` [Pyridine] was tested. Which concentration in plasma [34] did it give?
Answer: The concentration in plasma was 34200 ng/mL.

Question: And the concentration in plasma ([35]; 5 min)?
Answer: The concentration in plasma was 6260 ng/mL.

Question: And the concentration in plasma ([35]; 8 h)?
Answer: Its concentration in plasma is 390 ng/mL.

Question: And the concentration in plasma [36]?
Answer: The concentration in plasma was 8870 ng/mL.

Question: And the concentration in plasma [37]?
Answer: The concentration in plasma was 99700 ng/mL.

Question: And the concentration in plasma [38]?
Answer: Its concentration in plasma is 234 ng/mL.

From EPA's CvTdb concentration-time database
